Data on six molecules can be found in paper PMC7033117.

Protein sequences, listed by entry. Tags and fused reporters are not part of them.
UniProt Q6NZQ4: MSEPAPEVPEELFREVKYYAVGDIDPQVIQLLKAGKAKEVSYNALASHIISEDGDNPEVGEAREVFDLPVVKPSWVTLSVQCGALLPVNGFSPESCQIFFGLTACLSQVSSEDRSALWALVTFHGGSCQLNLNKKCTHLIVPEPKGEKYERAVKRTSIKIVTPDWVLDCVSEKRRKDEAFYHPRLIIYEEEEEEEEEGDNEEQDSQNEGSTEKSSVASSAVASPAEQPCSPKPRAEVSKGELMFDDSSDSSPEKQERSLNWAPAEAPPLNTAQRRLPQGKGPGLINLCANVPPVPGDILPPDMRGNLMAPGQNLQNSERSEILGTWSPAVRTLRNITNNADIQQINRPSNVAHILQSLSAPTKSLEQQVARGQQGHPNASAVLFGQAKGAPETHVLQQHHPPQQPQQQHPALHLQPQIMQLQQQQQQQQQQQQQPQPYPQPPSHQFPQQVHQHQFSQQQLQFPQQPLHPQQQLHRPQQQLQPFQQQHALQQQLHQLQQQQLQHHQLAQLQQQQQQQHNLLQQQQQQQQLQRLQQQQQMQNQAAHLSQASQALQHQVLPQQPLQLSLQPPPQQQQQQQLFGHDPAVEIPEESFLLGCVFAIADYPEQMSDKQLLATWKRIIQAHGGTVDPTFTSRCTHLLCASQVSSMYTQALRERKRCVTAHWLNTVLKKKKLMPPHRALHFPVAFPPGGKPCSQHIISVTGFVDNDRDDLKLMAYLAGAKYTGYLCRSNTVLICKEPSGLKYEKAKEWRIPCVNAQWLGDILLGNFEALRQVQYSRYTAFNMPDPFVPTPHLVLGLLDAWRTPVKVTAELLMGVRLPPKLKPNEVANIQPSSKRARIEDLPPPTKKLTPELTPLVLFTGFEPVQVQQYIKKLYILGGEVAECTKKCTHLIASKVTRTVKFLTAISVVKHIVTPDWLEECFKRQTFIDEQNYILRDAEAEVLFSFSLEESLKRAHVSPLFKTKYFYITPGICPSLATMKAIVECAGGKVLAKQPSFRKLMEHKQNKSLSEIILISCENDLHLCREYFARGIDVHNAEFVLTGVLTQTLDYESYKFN

Holding throughout (assay): co-IP; C3H10T1/2 cells infected with retrovirus expressing FLAG-tagged protein; whole cell extracts in RIPA buffer, FLAG-M2 agarose 16 h at 4 °C, four washes with RIPA, immunoblot of endogenous partners; also control and shKDM4D cells at day 5 after induction of differentiation
(In western blotting, separated proteins are transferred to a membrane and probed.)

One experiment deals with FLAG-NFIB (mouse) (UniProt P97863).
In another experiment the target is T1, FLAG-KDM4A (UniProt Q8BW72).
T1 sequence: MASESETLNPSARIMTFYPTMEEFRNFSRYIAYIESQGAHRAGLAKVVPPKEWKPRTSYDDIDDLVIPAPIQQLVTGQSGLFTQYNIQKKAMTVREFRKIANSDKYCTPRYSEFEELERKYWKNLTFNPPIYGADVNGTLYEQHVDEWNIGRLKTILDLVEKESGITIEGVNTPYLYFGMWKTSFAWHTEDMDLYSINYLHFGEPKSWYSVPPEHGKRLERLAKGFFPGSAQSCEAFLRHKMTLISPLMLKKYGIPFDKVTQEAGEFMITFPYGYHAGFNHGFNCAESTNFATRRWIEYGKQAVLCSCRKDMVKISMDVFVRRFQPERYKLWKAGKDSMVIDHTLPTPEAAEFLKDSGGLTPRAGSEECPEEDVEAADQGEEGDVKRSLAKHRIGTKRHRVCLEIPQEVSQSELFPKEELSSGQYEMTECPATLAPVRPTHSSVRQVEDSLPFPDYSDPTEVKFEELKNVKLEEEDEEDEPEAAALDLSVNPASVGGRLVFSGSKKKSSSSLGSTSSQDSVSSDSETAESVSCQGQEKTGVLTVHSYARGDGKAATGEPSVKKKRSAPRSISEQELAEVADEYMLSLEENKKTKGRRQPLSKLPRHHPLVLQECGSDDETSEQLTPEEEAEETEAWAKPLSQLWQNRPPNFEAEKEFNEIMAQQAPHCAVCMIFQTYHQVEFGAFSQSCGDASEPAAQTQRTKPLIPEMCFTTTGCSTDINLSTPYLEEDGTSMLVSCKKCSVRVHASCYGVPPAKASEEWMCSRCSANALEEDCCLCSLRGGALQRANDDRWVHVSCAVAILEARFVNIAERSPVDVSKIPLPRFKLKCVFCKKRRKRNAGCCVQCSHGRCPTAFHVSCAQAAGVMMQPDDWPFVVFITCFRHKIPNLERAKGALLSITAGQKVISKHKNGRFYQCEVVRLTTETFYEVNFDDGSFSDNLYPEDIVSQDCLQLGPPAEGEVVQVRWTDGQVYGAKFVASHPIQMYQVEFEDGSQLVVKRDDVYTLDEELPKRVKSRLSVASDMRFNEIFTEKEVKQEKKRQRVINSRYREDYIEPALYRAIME

The next experiment has as its target T2, FLAG-KDM4B (UniProt Q91VY5).
T2 sequence: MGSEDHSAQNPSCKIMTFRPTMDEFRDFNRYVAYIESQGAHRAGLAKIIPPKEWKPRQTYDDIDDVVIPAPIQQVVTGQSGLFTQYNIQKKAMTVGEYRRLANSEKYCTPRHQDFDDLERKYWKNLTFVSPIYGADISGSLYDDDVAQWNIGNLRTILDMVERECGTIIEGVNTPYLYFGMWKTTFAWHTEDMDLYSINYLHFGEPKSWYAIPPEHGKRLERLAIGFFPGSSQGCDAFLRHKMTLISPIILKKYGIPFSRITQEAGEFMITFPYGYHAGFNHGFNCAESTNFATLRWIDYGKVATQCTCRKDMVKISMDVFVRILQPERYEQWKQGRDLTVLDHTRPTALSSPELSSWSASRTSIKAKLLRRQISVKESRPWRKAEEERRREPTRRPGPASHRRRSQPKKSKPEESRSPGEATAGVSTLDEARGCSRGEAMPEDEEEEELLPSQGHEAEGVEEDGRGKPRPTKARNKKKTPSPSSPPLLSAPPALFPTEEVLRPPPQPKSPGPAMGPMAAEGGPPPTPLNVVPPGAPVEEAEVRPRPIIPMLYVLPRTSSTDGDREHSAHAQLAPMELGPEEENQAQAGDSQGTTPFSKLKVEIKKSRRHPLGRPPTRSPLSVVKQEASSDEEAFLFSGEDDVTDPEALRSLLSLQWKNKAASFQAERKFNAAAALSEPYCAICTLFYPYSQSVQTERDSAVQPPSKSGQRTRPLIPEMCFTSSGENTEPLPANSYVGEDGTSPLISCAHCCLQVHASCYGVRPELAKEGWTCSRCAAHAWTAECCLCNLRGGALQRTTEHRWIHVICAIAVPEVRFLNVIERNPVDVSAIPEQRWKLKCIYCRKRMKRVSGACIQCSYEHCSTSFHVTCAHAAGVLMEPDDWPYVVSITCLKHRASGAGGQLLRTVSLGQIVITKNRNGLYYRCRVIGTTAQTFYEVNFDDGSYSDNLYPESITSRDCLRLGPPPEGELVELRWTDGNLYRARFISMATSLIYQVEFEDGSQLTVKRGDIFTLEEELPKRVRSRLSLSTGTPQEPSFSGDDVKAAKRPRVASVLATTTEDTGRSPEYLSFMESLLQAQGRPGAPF

The target in the next experiment is T3, FLAG-KDM4C (UniProt Q8VCD7).
T3 sequence: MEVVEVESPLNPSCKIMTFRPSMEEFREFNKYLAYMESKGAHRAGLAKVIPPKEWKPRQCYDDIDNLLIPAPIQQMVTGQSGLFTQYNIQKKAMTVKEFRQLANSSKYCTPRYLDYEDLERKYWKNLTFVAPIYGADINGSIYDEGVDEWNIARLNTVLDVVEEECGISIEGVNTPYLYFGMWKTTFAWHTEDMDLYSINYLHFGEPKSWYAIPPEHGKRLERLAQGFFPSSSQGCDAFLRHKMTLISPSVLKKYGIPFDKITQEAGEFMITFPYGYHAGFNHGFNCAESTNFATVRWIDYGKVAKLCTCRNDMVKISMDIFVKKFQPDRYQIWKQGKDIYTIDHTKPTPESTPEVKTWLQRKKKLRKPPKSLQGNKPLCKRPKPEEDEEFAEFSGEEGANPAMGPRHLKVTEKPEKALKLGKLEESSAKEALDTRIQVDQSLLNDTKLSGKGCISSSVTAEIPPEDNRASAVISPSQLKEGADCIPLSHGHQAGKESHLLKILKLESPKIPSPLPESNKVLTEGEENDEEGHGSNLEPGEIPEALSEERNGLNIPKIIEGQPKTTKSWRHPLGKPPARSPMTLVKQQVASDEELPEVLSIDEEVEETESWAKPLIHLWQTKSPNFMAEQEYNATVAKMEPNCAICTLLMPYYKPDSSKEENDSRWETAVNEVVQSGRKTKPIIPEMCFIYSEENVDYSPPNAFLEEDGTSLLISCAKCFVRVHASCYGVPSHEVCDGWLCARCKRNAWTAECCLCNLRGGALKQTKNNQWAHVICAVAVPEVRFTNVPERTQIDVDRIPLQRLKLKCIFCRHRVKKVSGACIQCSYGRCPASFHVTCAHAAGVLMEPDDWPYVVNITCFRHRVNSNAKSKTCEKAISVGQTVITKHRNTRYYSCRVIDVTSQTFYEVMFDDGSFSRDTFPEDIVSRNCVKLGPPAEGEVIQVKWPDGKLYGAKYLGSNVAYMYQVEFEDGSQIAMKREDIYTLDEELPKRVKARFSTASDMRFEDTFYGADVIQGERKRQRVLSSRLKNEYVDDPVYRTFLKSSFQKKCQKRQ

The next experiment addresses T4, FLAG-KDM4D (mouse) (UniProt Q3U2K5).
T4 sequence: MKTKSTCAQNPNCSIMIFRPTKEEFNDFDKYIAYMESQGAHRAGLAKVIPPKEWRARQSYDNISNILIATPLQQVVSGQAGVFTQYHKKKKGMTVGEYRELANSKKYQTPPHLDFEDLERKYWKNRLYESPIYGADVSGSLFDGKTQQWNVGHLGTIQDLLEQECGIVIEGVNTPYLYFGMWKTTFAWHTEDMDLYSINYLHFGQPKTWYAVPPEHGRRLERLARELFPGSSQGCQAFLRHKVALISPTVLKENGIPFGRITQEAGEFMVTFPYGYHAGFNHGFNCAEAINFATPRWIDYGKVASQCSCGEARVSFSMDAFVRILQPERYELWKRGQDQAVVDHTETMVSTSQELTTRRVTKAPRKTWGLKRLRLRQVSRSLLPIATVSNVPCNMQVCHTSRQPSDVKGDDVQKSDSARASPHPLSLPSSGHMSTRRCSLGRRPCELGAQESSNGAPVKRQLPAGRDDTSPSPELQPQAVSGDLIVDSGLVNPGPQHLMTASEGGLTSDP

Results are given in words; binding and its absence hold for the method and conditions named. In cells and extracts the contact can be indirect. Some results given as binding are weak or reduced against the parent protein; the word gives no strength. For part of these data: Tags and fused reporters may be left off the sequences shown.

On to Ash2l (from UniProt Q91X20 1-623), for which, in the experiment with FLAG-NFIB (mouse), the binding entry is recorded as “binds”.

With “MLL1 (from UniProt P55200 1-3966) (enzyme)”, the binding entry is on record as “no binding” in the experiment with FLAG-KDM4A, “no binding” with FLAG-KDM4B, “no binding” with FLAG-KDM4C and “binds” with FLAG-NFIB (mouse).

As for PTIP (from UniProt Q6NZQ4 1-1056), the binding result in the experiment with FLAG-KDM4D (mouse) and with FLAG-NFIB (mouse) was “no binding” in each case.

Consider Rbbp5 (from UniProt Q8BX09 1-538), for which the binding result with FLAG-NFIB (mouse) was “binds”.

As to NFIB (from UniProt P97863 1-570), the binding result in the experiment with FLAG-KDM4A, in the experiment with FLAG-KDM4B and in the experiment with FLAG-KDM4C was “no binding” each time.

B1: Menin (protein, UniProt O88559 1-611)
chain: MGLKAAQKTLFPLRSIDDVVRLFAAELGREEPDLVLLSLVLGFVEHFLAVNRVIPTNVPELTFQPSPAPDPPGGLTYFPVADLSIIAALYARFTAQIRGAVDLSLYPREGGVSSRELVKKVSDVIWNSLSRSYFKDRAHIQSLFSFITGTKLDSSGVAFAVVGACQALGLRDVHLALSEDHAWVVFGPNGEQTAEVTWHGKGNEDRRGQTVNAGVAERSWLYLKGSYMRCDRKMEVAFMVCAINPSIDLHTDSLELLQLQQKLLWLLYDLGHLERYPMALGNLADLEELEPTPGRPDPLTLYHKGIASAKTYYQDEHIYPYMYLAGYHCRNRNVREALQAWADTATVIQDYNYCREDEEIYKEFFEVANDVIPNLLKEAASLLETGEERTGEQAQGTQGQGSALQDPECFAHLLRFYDGICKWEEGSPTPVLHVGWATFLVQSLGRFEGQVRQKVHIVSREAEAAEAEEPWGDEAREGRRRGPRRESKPEEPPPPKKPALDKGPGSGQSAGSGPPRKTSGTVPGTTRGGQEVGNAAQAPAPAASPPPEGPVLTFQSEKMKGMKELLVATKINSSAIKLQLTAQSQVQMKKQKVSTPSDYTLSFLKRQRKGL
For B1, in the experiment with FLAG-NFIB (mouse), the binding result is “binds”.
